The target of one experiment is T1, cynomolgus monkey 4-1BB (cynomolgus monkey).
T1 construct: whole, on cells; also called CHO-K1-cyno 4-1BB; CHO-K1/cyno4-1BB
As to the kind of experiment: FACS, CHO-K1/cyno 4-1BB cells [A]. A general note: A flow cytometer gives signals particle by particle.

In experiment [1] the target is T2, human B7-H4 (human, UniProt Q7Z7D3 25-282).
T2 construct: whole, on cells; also called VTCN1; SK-BR-3 cell line highly expressing B7-H4
T2 sequence (looked up): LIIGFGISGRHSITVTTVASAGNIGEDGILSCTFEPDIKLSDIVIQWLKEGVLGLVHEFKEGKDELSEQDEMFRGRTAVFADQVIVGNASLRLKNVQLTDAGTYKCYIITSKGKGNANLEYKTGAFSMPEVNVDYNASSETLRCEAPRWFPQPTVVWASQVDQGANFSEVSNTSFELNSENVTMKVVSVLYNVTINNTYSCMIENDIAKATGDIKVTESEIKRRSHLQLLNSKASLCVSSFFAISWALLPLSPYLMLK
The experiment in a line: FACS, SK-BR-3 cells [A].

Experiment [2] deals with T2, human B7-H4. As to the kind of experiment: FACS, SK-BR-3 cells [C].
The target in the next experiment is T3, human 4-1BB (human, UniProt Q07011 24-255).
T3 construct: whole, on cells; also called CD137; TNFRSF9
The experiment in a line: FACS, CHO-K1/h4-1BB cells [G].

In experiment [3] the target is T2, human B7-H4. As to the kind of experiment: FACS, SK-BR-3 cells [H].

Chain of human 4-1BB (Q07011 24-255): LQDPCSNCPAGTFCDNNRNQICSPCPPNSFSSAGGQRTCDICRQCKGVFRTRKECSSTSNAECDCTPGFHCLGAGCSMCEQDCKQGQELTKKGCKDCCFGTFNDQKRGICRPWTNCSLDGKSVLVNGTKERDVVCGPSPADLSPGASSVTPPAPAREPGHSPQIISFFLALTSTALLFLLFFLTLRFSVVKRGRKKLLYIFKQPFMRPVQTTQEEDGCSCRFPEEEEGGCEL

B1: PR002806 (bispecific antibody, human IgG1, kappa, L234A L235A)
light: EIVMTQSPATLSVSPGERATLSCRASQSISSNLGWYQQKPGQAPRLLIYGASTRATGIPARFSGSGSGTEFTLTISSLQSEDFAVYYCQQYNSWPPLTFGGGTKVEIKRTVAAPSVFIFPPSDEQLKSGTASVVCLLNNFYPREAKVQWKVDNALQSGNSQESVTEQDSKDSTYSLSSTLTLSKADYEKHKVYACEVTHQGLSSPVTKSFNRGEC
heavy: QVQLVESGGGVVQPGRSLRLSCAASGFTFRSFGMHWVRQAPGKGLEWVAVISYDGSNEYYADSVKGRFIISRDNSKDTLYLQMNSLRAGDTAVYYCAKGGGLRWYFAYWGQGTLVTVSSASTKGPSVFPLAPSSKSTSGGTAALGCLVKDYFPEPVTVSWNSGALTSGVHTFPAVLQSSGLYSLSSVVTVPSSSLGTQTYICNVNHKPSNTKVDKKVEPKSCDKTHTCPPCPAPEAAGGPSVFLFPPKPKDTLMISRTPEVTCVVVDVSHEDPEVKFNWYVDGVEVHNAKTKPREEQYNSTYRVVSVLTVLHQDWLNGKEYKCKVSNKALGAPIEKTISKAKGQPREPQVYTLPPSREEMTKNQVSLTCLVKGFYPSDIAVEWESNGQPENNYKTTPPVLDSDGSFFLYSKLTVDKSRWQQGNVFSCSVMHEALHNHYTQKSLSLSPGEPKSSDKTHTPPPPPRTEVQLLESGGGLVQPGGSLRLSCAASGFTFSNYAMSWFRQPPETGLKWVSSIDGSGGDTYYADSVKGRFTISRDNSKNTLYLQMNSLRAEDTAVYYCAKEGSHGTDDSHYDVDVWGQGTTVTVSS
notes: IgG-VH tetravalent symmetric; PR001476 IgG x PR001838 VH; IgG1 (L234A, L235A, P329G)
On to B1, for which, in the experiment with cynomolgus monkey 4-1BB, the EC50 (in general, the concentration giving half of the maximal effect) turned out to be 0.47 nM and the “Maximum MFI” value turned out to be 25500 MFI. Moreover, the binding result with human B7-H4 [1] was “binds”.

B2: PR002805 (bispecific antibody, human IgG1, kappa, L234A L235A)
polypeptide chain 1: EIVMTQSPATLSVSPGERATLSCRASQSISSNLGWYQQKPGQAPRLLIYGASTRATGIPARFSGSGSGTEFTLTISSLQSEDFAVYYCQQYNSWPPLTFGGGTKVEIKRTVAAPSVFIFPPSDEQLKSGTASVVCLLNNFYPREAKVQWKVDNALQSGNSQESVTEQDSKDSTYSLSSTLTLSKADYEKHKVYACEVTHQGLSSPVTKSFNRGEC
polypeptide chain 2: QVQLVESGGGVVQPGRSLRLSCAASGFTFRSFGMHWVRQAPGKGLEWVAVISYDGSNEYYADSVKGRFIISRDNSKDTLYLQMNSLRAGDTAVYYCAKGGGLRWYFAYWGQGTLVTVSSASTKGPSVFPLAPSSKSTSGGTAALGCLVKDYFPEPVTVSWNSGALTSGVHTFPAVLQSSGLYSLSSVVTVPSSSLGTQTYICNVNHKPSNTKVDKKVEPKSCDKTHTCPPCPAPEAAGGPSVFLFPPKPKDTLMISRTPEVTCVVVDVSHEDPEVKFNWYVDGVEVHNAKTKPREEQYNSTYRVVSVLTVLHQDWLNGKEYKCKVSNKALGAPIEKTISKAKGQPREPQVYTLPPSREEMTKNQVSLTCLVKGFYPSDIAVEWESNGQPENNYKTTPPVLDSDGSFFLYSKLTVDKSRWQQGNVFSCSVMHEALHNHYTQKSLSLSPGEPKSSDKTHTPPPPPRTEVQLLESGGGLVQPGGSLRLSCAASGFIFSNFAMTWVRQPPEKGLKWVSSINGSGFNTYYTDSVKGRFTISRDNSRNTLYLQMNRLTAEDTAVYFCAKEGSSETDDHYYNVDVWGQGTTVTVSS
notes: IgG-VH: PR001476 IgG + PR001836 VH, linker H1_15-RT, human IgG1 (L234A, L235A, P329G)
Take B2: in the experiment with human B7-H4 [2], a half-maximal effect (EC50) was put at 1.27 nM and the “Maximum MFI” value came to 53400 MFI.

B3: PR002801 (bispecific antibody, human IgG1, kappa, L234A L235A)
polypeptide chain 1: EIVMTQSPATLSVSPGERATLSCRASQSISSNLGWYQQKPGQAPRLLIYGASTRATGIPARFSGSGSGTEFTLTISSLQSEDFAVYYCQQYNSWPPLTFGGGTKVEIKRTVAAPSVFIFPPSDEQLKSGTASVVCLLNNFYPREAKVQWKVDNALQSGNSQESVTEQDSKDSTYSLSSTLTLSKADYEKHKVYACEVTHQGLSSPVTKSFNRGEC
polypeptide chain 2: QVQLVESGGGVVQPGRSLRLSCAASGFTFRSFGMHWVRQAPGKGLEWVAVISYDGSNEYYADSVKGRFIISRDNSKDTLYLQMNSLRAGDTAVYYCAKGGGLRWYFAYWGQGTLVTVSSASTKGPSVFPLAPSSKSTSGGTAALGCLVKDYFPEPVTVSWNSGALTSGVHTFPAVLQSSGLYSLSSVVTVPSSSLGTQTYICNVNHKPSNTKVDKKVEPKSCDKTHTCPPCPAPEAAGGPSVFLFPPKPKDTLMISRTPEVTCVVVDVSHEDPEVKFNWYVDGVEVHNAKTKPREEQYNSTYRVVSVLTVLHQDWLNGKEYKCKVSNKALGAPIEKTISKAKGQPREPQVYTLPPSREEMTKNQVSLTCLVKGFYPSDIAVEWESNGQPENNYKTTPPVLDSDGSFFLYSKLTVDKSRWQQGNVFSCSVMHEALHNHYTQKSLSLSPGEPKSSDKTHTPPPPPRTEVQLLESGGGLVQLGGSLRLSCAASGFTFSSYAMTWVRQAPEKGLEWVSSISGSGGNTYYADSVKGRFTISRDNSKNTLYLQMNSLRAEDTAVYYCAKERTGTTGDYYYNVDVWGQGTTVTVSS
notes: IgG-VH: PR001476 IgG + PR001781 VH, linker H1_15-RT, human IgG1 (L234A, L235A, P329G)
With B3, in the experiment with human B7-H4 [2], the EC50 was 0.476 nM and the “Maximum MFI” value was 30600 MFI.

B4: PR002800 (bispecific antibody, human IgG1, kappa, L234A L235A)
polypeptide chain 1: EIVMTQSPATLSVSPGERATLSCRASQSISSNLGWYQQKPGQAPRLLIYGASTRATGIPARFSGSGSGTEFTLTISSLQSEDFAVYYCQQYNSWPPLTFGGGTKVEIKRTVAAPSVFIFPPSDEQLKSGTASVVCLLNNFYPREAKVQWKVDNALQSGNSQESVTEQDSKDSTYSLSSTLTLSKADYEKHKVYACEVTHQGLSSPVTKSFNRGEC
polypeptide chain 2: QVQLVESGGGVVQPGRSLRLSCAASGFTFRSFGMHWVRQAPGKGLEWVAVISYDGSNEYYADSVKGRFIISRDNSKDTLYLQMNSLRAGDTAVYYCAKGGGLRWYFAYWGQGTLVTVSSASTKGPSVFPLAPSSKSTSGGTAALGCLVKDYFPEPVTVSWNSGALTSGVHTFPAVLQSSGLYSLSSVVTVPSSSLGTQTYICNVNHKPSNTKVDKKVEPKSCDKTHTCPPCPAPEAAGGPSVFLFPPKPKDTLMISRTPEVTCVVVDVSHEDPEVKFNWYVDGVEVHNAKTKPREEQYNSTYRVVSVLTVLHQDWLNGKEYKCKVSNKALGAPIEKTISKAKGQPREPQVYTLPPSREEMTKNQVSLTCLVKGFYPSDIAVEWESNGQPENNYKTTPPVLDSDGSFFLYSKLTVDKSRWQQGNVFSCSVMHEALHNHYTQKSLSLSPGEPKSSDKTHTPPPPPRTEVQLLESGGGLIQPGGSLRLSCAASGFTFSSFAMTWVRQAPGKGLEWVSTISGSGDNTYYADSVKGRFTISRDNSKNTLYLQMNSLRAEDTAVYFCAKEDTAVASDYYYNIDVWGQGTTVTVSS
notes: IgG-VH: PR001476 IgG + PR001780 VH, linker H1_15-RT, human IgG1 (L234A, L235A, P329G)
Consider B4, for which, in the experiment with human B7-H4 [2], a half-maximal effect (EC50) was put at 0.428 nM and the “Maximum MFI” value was found to be 33400 MFI.

B5: PR002798 (bispecific antibody, human IgG1, kappa, L234A L235A)
polypeptide chain 1: EIVMTQSPATLSVSPGERATLSCRASQSISSNLGWYQQKPGQAPRLLIYGASTRATGIPARFSGSGSGTEFTLTISSLQSEDFAVYYCQQYNSWPPLTFGGGTKVEIKRTVAAPSVFIFPPSDEQLKSGTASVVCLLNNFYPREAKVQWKVDNALQSGNSQESVTEQDSKDSTYSLSSTLTLSKADYEKHKVYACEVTHQGLSSPVTKSFNRGEC
polypeptide chain 2: QVQLVESGGGVVQPGRSLRLSCAASGFTFRSFGMHWVRQAPGKGLEWVAVISYDGSNEYYADSVKGRFIISRDNSKDTLYLQMNSLRAGDTAVYYCAKGGGLRWYFAYWGQGTLVTVSSASTKGPSVFPLAPSSKSTSGGTAALGCLVKDYFPEPVTVSWNSGALTSGVHTFPAVLQSSGLYSLSSVVTVPSSSLGTQTYICNVNHKPSNTKVDKKVEPKSCDKTHTCPPCPAPEAAGGPSVFLFPPKPKDTLMISRTPEVTCVVVDVSHEDPEVKFNWYVDGVEVHNAKTKPREEQYNSTYRVVSVLTVLHQDWLNGKEYKCKVSNKALGAPIEKTISKAKGQPREPQVYTLPPSREEMTKNQVSLTCLVKGFYPSDIAVEWESNGQPENNYKTTPPVLDSDGSFFLYSKLTVDKSRWQQGNVFSCSVMHEALHNHYTQKSLSLSPGEPKSSDKTHTPPPPPRTEVQLVESGGGLVQPGGSLRLSCAASGFTFSSFAMTWVRQAPEKGLEWVSTISGSGDTTYYADSVKGRFTISRDSSKNTLYLQMNSLRAEDSAVYFCAKEATAMASDYYYGVDVWGQGTTVTVSS
notes: IgG-VH: PR001476 IgG + PR001774 VH, linker H1_15-RT, human IgG1 (L234A, L235A, P329G)
As to B5, in the experiment with human B7-H4 [2], it took 0.596 nM to reach a half-maximal effect (EC50) and the “Maximum MFI” value was determined as 33200 MFI.

B6: PR004162 (bispecific antibody, human IgG1, kappa)
light: EIVMTQSPASLSVSPGERATLSCRASQSVSSNLAWYQQKPGQAPRLLIYGASTRATGIPARVSGGGSGTEFTLTISSLQSEDFAVYYCQQYKNWPFTFGPGTKLEIKRTVAAPSVFIFPPSDEQLKSGTASVVCLLNNFYPREAKVQWKVDNALQSGNSQESVTEQDSKDSTYSLSSTLTLSKADYEKHKVYACEVTHQGLSSPVTKSFNRGEC
heavy: QVQLVQSGAEVKKPGSSMRVSCKASEDTFSSYAISWVRQAPGQGLEWMGGTAPIFGTTNYAQKFQGRVTITADKSTSTAYMELSSLRSEDTAVYYCARGGPYFDYWGQGTLVTVSSASTKGPSVFPLAPSSKSTSGGTAALGCLVKDYFPEPVTVSWNSGALTSGVHTFPAVLQSSGLYSLSSVVTVPSSSLGTQTYICNVNHKPSNTKVDKKV[letters of human IgG1 Fc with changes not shown]EPKSSDKTHTPPPPPRTEVQLVESGGGVVQPGGSLRLSCAASGFTFSNYAMTWVRQAPEKGLEWVSSISGSGVSTYYADSVKGRFTISRDNSKNTLYLQMTRLTAEDTAVYFCAKEGSSETDDHYYNVDVWGQGTTVTVSS
notes: IgG-VH tetravalent symmetric; PR002410 IgG x PR001760 VH; IgG1 (L234A, L235A)
Take B6: in the experiment with human 4-1BB, it took 0.838 nM to reach a half-maximal effect (EC50) and the “Maximum MFI” value is 137000 MFI. In the experiment with human B7-H4 [3], the EC50 amounted to 3.34 nM and the “Maximum MFI” value worked out at 53200 MFI.

These data come from patent US20230235090A1 (HARBOUR BIOMED US, published 2023).
